From the supplement of paper PMC11348887
Where a name gives a salt, the structure may show the parent alone. The list shows a part of the results. Rule as the data show it: active = -2 or less and inactive = the rest. Many values rest on one well or one pass, so single values are uncertain.
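Also: nuclei counted from DAPI counterstain by automated high-content image analysis, four fields per well at ×20 in 384-well plates, with sequential b-score then z-score normalization.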

These compounds were tested on hPSC-derived cortical neurons (WA09) (assay: nuclei number (viability) z-score; higher = more surviving cells). Conditions: 5 µM; treatment: days 7-14 after plating, readout day 21.
For `CC(C)NCC(O)c1ccccc1Cl` (configuration not stated) [Clorprenaline HCl], the “nuclei number (z-score)” value was inactive: 0.29.
In the case of `Cc1cc2c(C(C)C)c(O)c(O)c(C=O)c2c(O)c1-c1c(C)cc2c(C(C)C)c(O)c(O)c(C=O)c2c1O` [Gossypol], the “nuclei number (z-score)” value is reported as inactive: -0.688.
With `O=c1[nH]c2ccccc2n1C1CCN(CCCC(c2ccc(F)cc2)c2ccc(F)cc2)CC1` [Pimozide] the “nuclei number (z-score)” value was active: -4.26.
With `O=c1[nH]c2ccc(Cl)cc2c(N[C@@H]2CN3CCC2CC3)c1-c1nc2ccccc2[nH]1` the “nuclei number (z-score)” value was active: -8.25.
With `CCN(CC)C(=O)c1ccc(C2=CC3(CCNCC3)Oc3cccc(O)c32)cc1` the “nuclei number (z-score)” value was inactive: 15.4.
In the case of `NCCCNCCSP(=O)(O)O` [Amifostine], the “nuclei number (z-score)” value is reported as inactive: 0.735.
For `C[C@]12CCC(=O)C(O)=C1CC[C@@H]1[C@@H]2CC[C@]2(C)C(=O)CC[C@@H]12` [Formestane], the “nuclei number (z-score)” value was inactive: 0.511.
For `N#C[C@H](O[C@@H]1O[C@H](C(=O)O)[C@@H](O)[C@H](O)[C@H]1O)c1ccccc1` [Laetrile], the “nuclei number (z-score)” value was inactive: -1.59.
With `CN[C@@H]1[C@@H](O)[C@@H](O[C@@H]2[C@@H](O)[C@H](O[C@H]3O[C@H]([C@@H](C)O)[C@@H](O)[C@H](O)[C@H]3N)[C@@H](N)C[C@H]2N)OC[C@]1(C)O` [Geneticin (G418 Sulfate)] the “nuclei number (z-score)” value was inactive: 0.324.
For `CCC1=C[C@H]2CN3CCc4c([nH]c5ccccc45)[C@](C(=O)OC)(C2)[C@H]13` [Catharanthine], the “nuclei number (z-score)” value was inactive: -0.796.
In the case of `CNCC(O)c1ccc(O)cc1` (configuration not stated) [Synephrine], the “nuclei number (z-score)” value is reported as inactive: 0.0377.
With `CNCC(O)c1ccc(O)cc1` (configuration not stated) [Synephrine HCl] the “nuclei number (z-score)” value was inactive: 0.942.
With `CCOc1ccccc1-n1c(C(C)N2CCN(C(=O)COc3ccc(Cl)cc3)CC2)nc2ccccc2c1=O` (configuration not stated) [Erastin] the “nuclei number (z-score)” value was inactive: -0.51.
For `CN1[C@@H]2CC[C@H]1C[C@@H](OC(=O)C(CO)c1ccccc1)C2` (some centres not stated) [Atropine], the “nuclei number (z-score)” value was inactive: -0.503.
In the case of `CCc1c(C(=O)C(N)=O)c2c(OCC(=O)O)cccc2n1Cc1ccccc1`, the “nuclei number (z-score)” value is reported as inactive: 0.597.
In the case of `Cc1sc2c(c1C)C(c1ccc(Cl)cc1)=N[C@@H](CC(=O)Nc1ccc(O)cc1)c1nnc(C)n1-2`, the “nuclei number (z-score)” value is reported as active: -4.53.
`COc1ccc(C(CN(C)C)C2(O)CCCCC2)cc1` (configuration not stated) [Venlafaxine] was tested, and the “nuclei number (z-score)” value was inactive: -0.0194.
For `CN(C)C(=O)Oc1cccc([N+](C)(C)C)c1` [Neostigmine Bromide], the “nuclei number (z-score)” value was inactive: 0.0157.
In the case of `Nc1ncnc2c1ccn2[C@@H]1O[C@H](CO)[C@@H](O)[C@H]1O` [Tubercidin], the “nuclei number (z-score)” value is reported as active: -6.68.
In the case of `C[C@H]1CNCCc2ccc(Cl)cc21` [Lorcaserin HCl], the “nuclei number (z-score)” value is reported as inactive: 0.524.
With `C=C1C[C@@H]2[C@H](CC[C@]3(C)C(=O)CC[C@@H]23)[C@@]2(C)C=CC(=O)C=C12` [Exemestane] the “nuclei number (z-score)” value was inactive: 2.27.
With `COc1cc(C)[nH]c(=O)c1CNC(=O)c1c(C)n([C@H](C)C2CCOCC2)c2ccccc12` the “nuclei number (z-score)” value was inactive: 0.347.
For `CN1C(=O)CCS(=O)(=O)C1c1ccc(Cl)cc1` (configuration not stated) [Chlormezanone], the “nuclei number (z-score)” value was inactive: 0.276.
In the case of `O=P1(N(CCCl)CCCl)NCCCO1` (configuration not stated) [Cyclophosphamide Monohydrate], the “nuclei number (z-score)” value is reported as inactive: 2.36.
For `c1ccc2c(c1)sc1ccccc12` [Dibenzothiophene], the “nuclei number (z-score)” value was inactive: -0.000322.
In the case of `CC(=O)NC1CCSC1=O` (configuration not stated) [Citiolone], the “nuclei number (z-score)” value is reported as inactive: 0.19.
In the case of `Cc1ccc(-n2nccn2)c(C(=O)N2CCN(c3nc4cc(Cl)ccc4o3)CC[C@H]2C)c1` [Suvorexant (MK-4305)], the “nuclei number (z-score)” value is reported as inactive: 7.12.
With `CCCN1CCO[C@@H]2c3cc(O)ccc3OC[C@H]21` the “nuclei number (z-score)” value was inactive: -0.275.
For `CCCCCCCCCCCCCCCC[n+]1ccccc1` [Cetylpyridinium Chloride], the “nuclei number (z-score)” value was active: -5.11.
`O.O.O.O=C([O-])C1[O][Sb]2[O]C(=O)C([O]2)C(C(=O)[O-])[O][Sb]2[O]C(=O)C1[O]2.[K+].[K+]` (configuration not stated) [Antimonyl potassium tartrate trihydrate] was tested, and the “nuclei number (z-score)” value was active: -5.23.
With `Cn1c(COP(=O)(NCCBr)NCCBr)cnc1[N+](=O)[O-]` the “nuclei number (z-score)” value was inactive: -0.968.
In the case of `C=CN1CCCC1=O.II` [Povidone iodine], the “nuclei number (z-score)” value is reported as inactive: 4.28.
For `Cc1sc2c(c1C)C(c1ccc(Cl)cc1)=N[C@@H](CC(=O)OC(C)(C)C)c1nnc(C)n1-2`, the “nuclei number (z-score)” value was active: -3.32.
`O=C(CC1NCCCC1O)Cn1cnc2cc(Br)c(Cl)cc2c1=O` (configuration not stated) [Halofuginone] was tested, and the “nuclei number (z-score)” value was active: -5.26.
`CCc1cc2c(s1)-n1c(C)nnc1CN=C2c1ccccc1Cl` [Etizolam] was tested, and the “nuclei number (z-score)” value was inactive: 0.478.
For `COc1cc(OC)c(OC)cc1C=O` [Asaraldehyde], the “nuclei number (z-score)” value was inactive: -0.401.
With `C[N+]1(C)CCCC(OC(=O)C(O)(c2ccccc2)c2ccccc2)C1` (configuration not stated) [Mepenzolate Bromide] the “nuclei number (z-score)” value was inactive: 1.39.
In the case of `OC(c1ccccc1)(c1ccccc1)C1CCNCC1` [Azacyclonol], the “nuclei number (z-score)” value is reported as active: -5.25.
In the case of `CCC1(C)CC(=O)NC(=O)C1` [Bemegride], the “nuclei number (z-score)” value is reported as inactive: 0.624.
In the case of `C/C(O)=C(\C#N)C(=O)Nc1cc(Br)ccc1Br`, the “nuclei number (z-score)” value is reported as inactive: -0.318.
For `CCN(Cc1ccc(Cl)nc1)/C(=C/[N+](=O)[O-])NC` [Nitenpyram], the “nuclei number (z-score)” value was inactive: 0.6.
For `Cc1ccccc1-n1c(Cn2ncc3c(N)ncnc32)nc2cccc(C)c2c1=O`, the “nuclei number (z-score)” value was inactive: -0.138.
